In paper PMC12820563:
This is one part of the list. The list includes weakly bound sequences.

Target: T1, MBP-FoxP3dN (UniProt Q99JB6)
T1 sequence: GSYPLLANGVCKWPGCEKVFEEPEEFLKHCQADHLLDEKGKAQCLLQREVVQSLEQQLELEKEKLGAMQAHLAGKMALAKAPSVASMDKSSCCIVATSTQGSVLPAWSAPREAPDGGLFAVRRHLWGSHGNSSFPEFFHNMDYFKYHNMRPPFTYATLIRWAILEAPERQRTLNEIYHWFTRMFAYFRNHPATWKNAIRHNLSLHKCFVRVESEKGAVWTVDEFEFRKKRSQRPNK
Assay: PD-seq (MBP pull-down with sequencing)
Conditions: 20 mM Tris-HCl pH 7.5, 100 mM NaCl, 1.5 mM MgCl2, 0.4 uM protein, 0.1 uM dsDNA library, 30 min, room temperature, amylose pull-down; high values mean tight binding; double strand, one strand shown

Sequence	binding signal (RPM ratio (pull-down/input))
GATGATTGTTCTCCCAGCTGATGAATTTCAAGGTTCGAGTAAACAAATTTTCCTAATCTTTCTGTTCAAGCGCCATCTAC	0.253
GATGATTGTTCTCCCAGCTGATGAATTGACCAGTTCGAGTAAACAAATTTTCCTAATCTTTCTGTTCAAGCGCCATCTAC	0.256
GATGATTGTTCTCCCAGCTGATGAATTCTATGATTCGAGTAAACAAATTTTCCTAATCTTTCTGTTCAAGCGCCATCTAC	2
GATGATTGTTCTCCCAGCTGATGAATTATCATAGTCGAGTAAACAAATTTTCCTAATCTTTCTGTTCAAGCGCCATCTAC	0.336
GATGATTGTTCTCCCAGCTGATGAATTTGTATTTTCGAGTAAACAAATTTTCCTAATCTTTCTGTTCAAGCGCCATCTAC	4.85
GATGATTGTTCTCCCAGCTGATGAATTAGTTACGTCGAGTAAACAAATTTTCCTAATCTTTCTGTTCAAGCGCCATCTAC	0.996
GATGATTGTTCTCCCAGCTGATGAATTTCGAACATCGAGTAAACAAATTTTCCTAATCTTTCTGTTCAAGCGCCATCTAC	0.442
GATGATTGTTCTCCCAGCTGATGAATTCTTTTATTCGAGTAAACAAATTTTCCTAATCTTTCTGTTCAAGCGCCATCTAC	0.35
GATGATTGTTCTCCCAGCTGATGAATTGTCTGAATCGAGTAAACAAATTTTCCTAATCTTTCTGTTCAAGCGCCATCTAC	0.252
GATGATTGTTCTCCCAGCTGATGAATTCGATCCATCGAGTAAACAAATTTTCCTAATCTTTCTGTTCAAGCGCCATCTAC	0.313
GATGATTGTTCTCCCAGCTGATGAATTTCTCCAATCGAGTAAACAAATTTTCCTAATCTTTCTGTTCAAGCGCCATCTAC	0.202
GATGATTGTTCTCCCAGCTGATGAATTTCGTAATTCGAGTAAACAAATTTTCCTAATCTTTCTGTTCAAGCGCCATCTAC	1.12
GATGATTGTTCTCCCAGCTGATGAATTTCGATTCTCGAGTAAACAAATTTTCCTAATCTTTCTGTTCAAGCGCCATCTAC	0.907
GATGATTGTTCTCCCAGCTGATGAATTTCCCGGGTCGAGTAAACAAATTTTCCTAATCTTTCTGTTCAAGCGCCATCTAC	0.138
GATGATTGTTCTCCCAGCTGATGAATTTGTACAGTCGAGTAAACAAATTTTCCTAATCTTTCTGTTCAAGCGCCATCTAC	1.3
GATGATTGTTCTCCCAGCTGATGAATTTTAACAGTCGAGTAAACAAATTTTCCTAATCTTTCTGTTCAAGCGCCATCTAC	0.28
GATGATTGTTCTCCCAGCTGATGAATTGTTTGGATCGAGTAAACAAATTTTCCTAATCTTTCTGTTCAAGCGCCATCTAC	3.7
GATGATTGTTCTCCCAGCTGATGAATTATAACCATCGAGTAAACAAATTTTCCTAATCTTTCTGTTCAAGCGCCATCTAC	0.463
GATGATTGTTCTCCCAGCTGATGAATTCACATTGTCGAGTAAACAAATTTTCCTAATCTTTCTGTTCAAGCGCCATCTAC	0.493
GATGATTGTTCTCCCAGCTGATGAATTCTTCAATTCGAGTAAACAAATTTTCCTAATCTTTCTGTTCAAGCGCCATCTAC	0.256
GATGATTGTTCTCCCAGCTGATGAATTTCATCGATCGAGTAAACAAATTTTCCTAATCTTTCTGTTCAAGCGCCATCTAC	0.393

Sequence	binding signal (RPM ratio (pull-down/input))
GATGATTGTTCTCCCAGCTGATGAATTTGATCCGTCGAGTAAACAAATTTTCCTAATCTTTCTGTTCAAGCGCCATCTAC	0.335
GATGATTGTTCTCCCAGCTGATGAATTCAGGCACTCGAGTAAACAAATTTTCCTAATCTTTCTGTTCAAGCGCCATCTAC	0.479
GATGATTGTTCTCCCAGCTGATGAATTTATCGACTCGAGTAAACAAATTTTCCTAATCTTTCTGTTCAAGCGCCATCTAC	0.548
GATGATTGTTCTCCCAGCTGATGAATTTAAGATATCGAGTAAACAAATTTTCCTAATCTTTCTGTTCAAGCGCCATCTAC	0.347
GATGATTGTTCTCCCAGCTGATGAATTGTCCATATCGAGTAAACAAATTTTCCTAATCTTTCTGTTCAAGCGCCATCTAC	0.473
GATGATTGTTCTCCCAGCTGATGAATTTTTATGTTCGAGTAAACAAATTTTCCTAATCTTTCTGTTCAAGCGCCATCTAC	0.471
GATGATTGTTCTCCCAGCTGATGAATTTTATAACTCGAGTAAACAAATTTTCCTAATCTTTCTGTTCAAGCGCCATCTAC	0.381
GATGATTGTTCTCCCAGCTGATGAATTGCGAACTTCGAGTAAACAAATTTTCCTAATCTTTCTGTTCAAGCGCCATCTAC	0.549
GATGATTGTTCTCCCAGCTGATGAATTTAGCTGCTCGAGTAAACAAATTTTCCTAATCTTTCTGTTCAAGCGCCATCTAC	0.751
GATGATTGTTCTCCCAGCTGATGAATTGTTCGCGTCGAGTAAACAAATTTTCCTAATCTTTCTGTTCAAGCGCCATCTAC	0.503
GATGATTGTTCTCCCAGCTGATGAATTAATATTATCGAGTAAACAAATTTTCCTAATCTTTCTGTTCAAGCGCCATCTAC	0.787
GATGATTGTTCTCCCAGCTGATGAATTTACTAAATCGAGTAAACAAATTTTCCTAATCTTTCTGTTCAAGCGCCATCTAC	0.365
GATGATTGTTCTCCCAGCTGATGAATTATGAACCTCGAGTAAACAAATTTTCCTAATCTTTCTGTTCAAGCGCCATCTAC	0.381
GATGATTGTTCTCCCAGCTGATGAATTAGGGTTGTCGAGTAAACAAATTTTCCTAATCTTTCTGTTCAAGCGCCATCTAC	1.08
GATGATTGTTCTCCCAGCTGATGAATTCAATCGTTCGAGTAAACAAATTTTCCTAATCTTTCTGTTCAAGCGCCATCTAC	0.554
GATGATTGTTCTCCCAGCTGATGAATTATCTAGTTCGAGTAAACAAATTTTCCTAATCTTTCTGTTCAAGCGCCATCTAC	0.333
GATGATTGTTCTCCCAGCTGATGAATTTACTCAGTCGAGTAAACAAATTTTCCTAATCTTTCTGTTCAAGCGCCATCTAC	0.286
GATGATTGTTCTCCCAGCTGATGAATTTCATATTTCGAGTAAACAAATTTTCCTAATCTTTCTGTTCAAGCGCCATCTAC	0.658
GATGATTGTTCTCCCAGCTGATGAATTGCAATCCTCGAGTAAACAAATTTTCCTAATCTTTCTGTTCAAGCGCCATCTAC	1.41
GATGATTGTTCTCCCAGCTGATGAATTAACATTCTCGAGTAAACAAATTTTCCTAATCTTTCTGTTCAAGCGCCATCTAC	0.489
GATGATTGTTCTCCCAGCTGATGAATTGCGCGCTTCGAGTAAACAAATTTTCCTAATCTTTCTGTTCAAGCGCCATCTAC	1.58

Sequence	binding signal (RPM ratio (pull-down/input))
GATGATTGTTCTCCCAGCTGATGAATTCTCAGCATCGAGTAAACAAATTTTCCTAATCTTTCTGTTCAAGCGCCATCTAC	0.635
GATGATTGTTCTCCCAGCTGATGAATTGTAAAATTCGAGTAAACAAATTTTCCTAATCTTTCTGTTCAAGCGCCATCTAC	0.231
GATGATTGTTCTCCCAGCTGATGAATTAAGAAGATCGAGTAAACAAATTTTCCTAATCTTTCTGTTCAAGCGCCATCTAC	0.196
GATGATTGTTCTCCCAGCTGATGAATTTGCAGCCTCGAGTAAACAAATTTTCCTAATCTTTCTGTTCAAGCGCCATCTAC	1.27
GATGATTGTTCTCCCAGCTGATGAATTATAGATCTCGAGTAAACAAATTTTCCTAATCTTTCTGTTCAAGCGCCATCTAC	0.352
GATGATTGTTCTCCCAGCTGATGAATTGAAGGTTTCGAGTAAACAAATTTTCCTAATCTTTCTGTTCAAGCGCCATCTAC	0.397
GATGATTGTTCTCCCAGCTGATGAATTATAATACTCGAGTAAACAAATTTTCCTAATCTTTCTGTTCAAGCGCCATCTAC	0.58
GATGATTGTTCTCCCAGCTGATGAATTCCGGGTCTCGAGTAAACAAATTTTCCTAATCTTTCTGTTCAAGCGCCATCTAC	0.568
GATGATTGTTCTCCCAGCTGATGAATTCAGCTCATCGAGTAAACAAATTTTCCTAATCTTTCTGTTCAAGCGCCATCTAC	0.381
GATGATTGTTCTCCCAGCTGATGAATTGTGGCTCTCGAGTAAACAAATTTTCCTAATCTTTCTGTTCAAGCGCCATCTAC	1.32
GATGATTGTTCTCCCAGCTGATGAATTGCGAGCTTCGAGTAAACAAATTTTCCTAATCTTTCTGTTCAAGCGCCATCTAC	0.653
GATGATTGTTCTCCCAGCTGATGAATTTGAAAAGTCGAGTAAACAAATTTTCCTAATCTTTCTGTTCAAGCGCCATCTAC	0.145
GATGATTGTTCTCCCAGCTGATGAATTTCCCTCCTCGAGTAAACAAATTTTCCTAATCTTTCTGTTCAAGCGCCATCTAC	0.247
GATGATTGTTCTCCCAGCTGATGAATTTCATTCATCGAGTAAACAAATTTTCCTAATCTTTCTGTTCAAGCGCCATCTAC	0.531
GATGATTGTTCTCCCAGCTGATGAATTATCCGGTTCGAGTAAACAAATTTTCCTAATCTTTCTGTTCAAGCGCCATCTAC	0.237
GATGATTGTTCTCCCAGCTGATGAATTCCAGTAATCGAGTAAACAAATTTTCCTAATCTTTCTGTTCAAGCGCCATCTAC	0.477
GATGATTGTTCTCCCAGCTGATGAATTGTTCCTCTCGAGTAAACAAATTTTCCTAATCTTTCTGTTCAAGCGCCATCTAC	0.416
GATGATTGTTCTCCCAGCTGATGAATTAGCCATCTCGAGTAAACAAATTTTCCTAATCTTTCTGTTCAAGCGCCATCTAC	0.956
GATGATTGTTCTCCCAGCTGATGAATTTCATGCTTCGAGTAAACAAATTTTCCTAATCTTTCTGTTCAAGCGCCATCTAC	0.528
GATGATTGTTCTCCCAGCTGATGAATTCTGTCCGTCGAGTAAACAAATTTTCCTAATCTTTCTGTTCAAGCGCCATCTAC	0.458
GATGATTGTTCTCCCAGCTGATGAATTCAGACACTCGAGTAAACAAATTTTCCTAATCTTTCTGTTCAAGCGCCATCTAC	1.16
